# Hit rate of the full screen: of about 120,000 compounds, about 5,300 (4.4%) were called active. The shares of active, inactive and inconclusive entries below differ from those in the screen. The call rests on the fitted dose curve; in most records, active means well fitted inhibition curve with a large enough effect; inconclusive means small, poorly fitted or top-dose-only effect; inactive means no such curve, though single readings can be large or run the other way. Where the call is inconclusive, the potency comes from a doubtful curve fit.
# Experiment: qHTS Primary assay for Inhibitors of Plasmodium falciparum Dd2 growth in vitro; further: nearly all actives have a fitted effect of over 65% in size;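 on activity, negative = inhibition: plate controls were DMSO vehicle for no effect and reference drug for full effect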
# Conditions: P. falciparum Dd2 growth, SYBR Green, 72 h; activity, negative = inhibition: at 28.9 µM (top of the series) unless noted; series mostly up to 28.9 µM
# How it was run: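 Readout: SYBR Green fluorescence, 485 nm excitation, 535 nm emission, after ~16 h lysis at 37C. Before that, Dd2-infected red cells (2.5% hematocrit) grew 72 h with compound, 29 uM top final concentration.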
# Potency means the concentration at half of the fitted maximal effect; tags describe the fitted curve by direction and shape.
Compound,Potency,"activity, negative = inhibition",outcome
CN1CCN(C(=O)[C@@H]2CCC[C@@H](NCc3cccc4c3OCO4)CN(C)C(=O)C2)CC1,"inconclusive: 12.6 µM [inhibitor, single point]",–,–
COCC1CN(S(=O)(=O)c2c(C)noc2C)CC12CCNCC2 (stereo not given),–,inactive: 2.22%,–
Cc1ccccc1NS(=O)(=O)c1ccc2[nH]cc(C(=O)NCCc3ccccc3)c(=O)c2c1,active: 11.2 µM,–,–
CS(=O)(=O)N1CCC(C2CCN(CC3CC3)C2)CC1 (stereo not given),"inconclusive: 3.16 µM [inhibitor, full curve, poor fit]",–,–
CCn1cc(S(=O)(=O)N2CC[C@@H]3C(=O)NCCCCCCN(Cc4ccncc4)[C@@H]3C2)cn1,"inconclusive: 14.1 µM [inhibitor, single point]",–,–
COCCn1cc(CN2CCN(c3ccccc3F)CC2)ccc1=O,–,inactive: 15.5%,–
CCOc1ccc(NC(=O)N2CC3CCCN3c3ccccc32)cc1 (stereo not given),"inconclusive: 17.8 µM [inhibitor, single point]",–,–
O=C(NC[C@H]1O[C@@H]2C[C@@H](CC(=O)N3CCOCC3)O[C@@H]2[C@@H]1O)NC1CCCCC1,"inconclusive: 1.26 µM [inhibitor, partial curve, poor fit]",–,–
O=C(C1CC(=O)N(C2CCCCC2)C1)N1CCC2(CC1)NCCc1c2[nH]c2ccccc12 (stereo not given),–,–,inactive
Cn1cnc(S(=O)(=O)N2CCC(CC(=O)NCc3ccccc3)C2)c1 (stereo not given),–,inactive: 76.6%,–
Cn1cccc1CN1CCC(N2CCOCC2=O)CC1,–,inactive: 1.3% [at 44.1 µM],–
COCC(=O)N1C[C@@H]2C[C@H]1C(=O)N(Cc1ccccn1)c1ccccc1O2,–,inactive: 0.61% [at 44.1 µM],–
COc1cc(OC)cc(C(=O)NCC2CCCN(Cc3cccc(C)n3)C2)c1 (stereo not given),"inconclusive: 14.1 µM [inhibitor, single point]",–,–
CCOc1ccc(NC(=O)CCc2c(C)nc3cc(-c4ccccc4OC)nn3c2C)cc1,"inconclusive: 10 µM [inhibitor, single point]",–,–
CN(C)C(=O)c1cccnc1OC1CCN(C(=O)c2ccc(Br)o2)C1 (stereo not given),"inconclusive: 5.01 µM [inhibitor, partial curve]",–,–
COc1ccc(N2CCN(c3nc(C(=O)NCC4CCCCC4)cs3)CC2)cc1,"inconclusive: 3.98 µM [inhibitor, full curve, poor fit]",–,–
O=C(NCc1ccco1)c1ccc2c(c1)N(Cc1ccccc1)C(=O)c1ccccc1S2,–,–,inactive
OC(c1cccc(C(F)(F)F)c1)c1nc(Nc2ccc(F)cc2)n[nH]1 (stereo not given),–,inactive: -20.7% [at 44.1 µM],–
Cc1ccc(C(=O)NCc2nnc3cc(-c4nc(C(C)C)no4)ccn23)cc1,"inconclusive: 6.31 µM [inhibitor, partial curve, poor fit]",–,–
CC(NC(=O)c1csc(N2CCN(c3ccccc3F)CC2)n1)c1ccccc1 (stereo not given),"inconclusive: 10 µM [inhibitor, single point]",–,–
Fc1ccc(CN2CCOC[C@H]2c2ncc(-c3cccc(Cl)c3)[nH]2)cc1,"inconclusive: 11.2 µM [inhibitor, partial curve, poor fit]",–,–
O=C(NC1CCCCC1)c1ccc(CSc2nc3cccnc3n2Cc2cccc(F)c2)cc1,active: 11.2 µM,–,–
COCC1CN(S(=O)(=O)c2cccs2)CC12CCNCC2 (stereo not given),–,inactive: 29.6%,–

Compound,Potency,"activity, negative = inhibition",outcome
COCCN1C(=O)c2ccccc2C(C(=O)Nc2ccc(OC)c(Cl)c2)C12CCCC2 (stereo not given),–,inactive: -8.48%,–
COc1ccccc1CC(=O)Nc1ccc2nc(Nc3cccc(C(F)(F)F)c3)cc(C)c2c1,"inconclusive: 14.1 µM [inhibitor, single point]",–,–
Cc1nc2ncccn2c1C(=O)N[C@H]1[C@H]2CCO[C@H]2[C@@H]1N(C)C,–,inactive: 6.03%,–
CC(C)(C)c1nc(C(=O)NCc2ccc(F)cc2)n2ccccc12,–,inactive: -10.5%,–
CCOc1ccc(-n2c(C)nc3cc(C(=O)NC4CCCC4)ccc32)cc1,"inconclusive: 7.94 µM [inhibitor, partial curve, poor fit]",–,–
CC(C)NC(=O)NCc1nnc2n1C(C(=O)NCc1cccnc1)CC2 (stereo not given),–,inactive: 23.7%,–
COc1ccc(OC)c(CNC(=O)c2cc3c(Cl)nc4ccccc4c3s2)c1,–,inactive: 50%,–
Cc1cccc(NC(=O)/C(C#N)=C/c2ccco2)c1,"inconclusive: 20 µM [inhibitor, single point]",–,–
COc1cncc([C@@H](NC(=O)CCN2CCCCO2)C2CC(O)C2)c1 (stereo not given in full),inactive,–,–
O=C1CCN(C2CCN(Cc3nc(COc4ccccc4)no3)CC2)CCN1,–,inactive: -13.2%,–
N#C/C(=C\c1ccc(OCc2ccc(Cl)cc2Cl)cc1)c1nc2ccccc2[nH]1,"inconclusive: 11.2 µM [inhibitor, single point]",–,–
CCNC(=O)c1n[nH]c2c1CN(C(=O)c1ccc(OC(F)(F)F)cc1)CC2,–,–,inactive
CCc1ccc(C(=O)N2CCC3(CC2)N(CCOC)C(=O)CS3(=O)=O)cc1,–,inactive: -1.2%,–
O=C(Nc1nc2n(n1)C(c1ccc(F)cc1)C=C(c1ccc(Cl)cc1)N2)c1ccc([N+](=O)[O-])cc1 (stereo not given),active: 3.98 µM,–,–
COc1ccc(NC(=O)c2cnn(-c3ccc(C)c(C)c3)c2C2CCNCC2)cc1OC,"inconclusive: 17.8 µM [inhibitor, single point]",–,–
Cc1cnc(C2CC2)n1CC1CCN(C(=O)Cc2ccccc2)CC1,"inconclusive: 10 µM [inhibitor, partial curve, poor fit]",–,–
O=C1CO[C@H]2CCN(Cc3ccccc3F)CC[C@@H]2N1CCN1CCCC1,"inconclusive: 5.62 µM [inhibitor, single point]",–,–
Cc1cccc(C(=O)N2CCCCCCN(C)C(=O)[C@@H]3CCC[C@@H]32)c1,"inconclusive: 17.8 µM [inhibitor, single point]",–,–
CCOC(=O)N1CCc2c(sc(NCc3ccc(N(CC)CC)cc3)c2C(=O)Nc2cc(OC)ccc2OC)C1,active: 7.94 µM,–,–
COc1ccc(CNC(=O)[C@@H]2Cc3cn(Cc4cccnc4)c4cccc(c34)[C@H](CC(C)C)N2)cc1,"inconclusive: 12.6 µM [inhibitor, single point]",–,–
Cc1ccc(-n2c(C3CCN(C(=O)c4ccc(F)c(F)c4)CC3)n[nH]c2=O)cc1,"inconclusive: 12.6 µM [inhibitor, partial curve, poor fit]",–,–
O=c1n(-c2ccc(C(F)(F)F)cc2)nc2n1CCN(Cc1ccccc1)C2,inactive,–,–
